# Test results: PubChem BioAssay AID540317 (National Center for Advancing Translational Sciences (NCATS), 2011)
# Where “and” joins values, the source holds several entries; their conditions need not be identical. Equal entries are not always repeated. Among all 390,000 compounds or so, about 2,200 (0.56%) were called active. The inconclusive results got no clear call from the source; some entries with a clear call stand among them for comparison. Calls follow the shape of the dose curve; as a rule, active = well fitted inhibition curve with a large enough effect; inconclusive = small, poorly fitted or top-dose-only effect; inactive = no such curve, though single readings can be large or run the other way. A potency beside an inconclusive call is a rough fit, not a confirmed value. Where a structure was tested more than once in an assay, its records may differ in their call.
# Molecular target: Chromobox protein homolog 1 (Homo sapiens) (UniProt P83916)
# Assay: HTS for Inhibitors of HP1-beta Chromodomain Interactions with Methylated Histone Tails; also: nearly all actives have a fitted effect of over 70% in size
# Conditions: AlphaScreen HP1-beta / biotin-H3K9me3 peptide binding; series mostly up to 114 µM
# Procedure, shortened: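 HP1-beta protein (50 nM final) preincubated 30 min at room temperature with biotinylated H3(1-18)K9me3 peptide (50 nM) in PBS pH 7.4, 0.01% Tween-20, then compound added for 30 min. AlphaScreen streptavidin donor/nickel chelate acceptor beads (10 ug/mL final), 30 min dark, luminescence read.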
# Potency is read from the fitted curve at half-maximal effect; tags tell the direction and shape of the fitted curve.
# UniProt P83916, sequence (P83916 whole entry, looked up): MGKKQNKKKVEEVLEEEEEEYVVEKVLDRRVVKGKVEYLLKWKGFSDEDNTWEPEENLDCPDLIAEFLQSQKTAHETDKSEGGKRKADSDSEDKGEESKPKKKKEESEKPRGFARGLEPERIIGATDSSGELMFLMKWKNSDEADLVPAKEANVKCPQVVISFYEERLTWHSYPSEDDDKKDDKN
row,Compound,Potency
1,O=C1C=CC(=O)N1,"inconclusive: 14.1 µM [inhibitor, partial curve, poor fit]"
2,CC(=NNC(=S)Nc1cccc(C)c1)c1ccccn1,"inconclusive: 14.1 µM [inhibitor, partial curve, poor fit]"
3,COc1ccc(OCc2nc(C#N)c(NCc3ccccc3Cl)o2)cc1,inactive
4,S=c1[nH]c(-c2ccccc2)cs1,"inconclusive: 56.2 µM [inhibitor, single point]"
5,Cc1cc(C(C)(C)C)ccc1OCCn1ccnc1,"inconclusive: 25.1 µM [inhibitor, full curve, poor fit]"
6,CCCOC(=O)c1c(NC(=O)C2CCCO2)sc(C(=O)OC)c1C (configuration not stated),"inconclusive: 31.6 µM [inhibitor, partial curve]"
7,COc1ccccc1CNC(=O)CCC(=O)N1Cc2ccccc2Oc2ncccc21,inactive
8,CN(C)c1ccc(CN(Cc2ccco2)C(=O)c2ccc(F)cc2)cc1,"inconclusive: 20 µM [inhibitor, full curve]"
9,CC(/C=C/c1ccccc1)=N\NC(=S)NC(C)C,"inconclusive: 56.2 µM [inhibitor, single point]"
10,COc1ccc(/C=c2/sc3nc(-c4ccccc4)c(-c4ccccc4)n3c2=O)cc1,"inconclusive: 20 µM [inhibitor, partial curve, poor fit]"
11,O=C(O)c1ccc(N2C(=O)c3cccc4c(C(=O)O)ccc(c34)C2=O)cc1,active: 79.4 µM
12,CCOC(=O)c1ccc(CC(=O)c2ccc(O)c(O)c2O)o1,"inconclusive: 1.26 µM [inhibitor, full curve, poor fit]"
13,CC(C)Oc1ccc(C(=O)Nc2nnc(C3=COCCO3)o2)cc1,inactive
14,Cc1ccc(NC(=O)C(=O)NCCCN2CCCC2=O)cc1,inactive
15,Cc1ccsc1C(=O)Nc1ccccc1N1CCCC1,inactive
16,COc1cc(C2CC(=O)N3CN(Cc4ccccc4)CSC3=C2C#N)ccc1OCc1ccccc1 (configuration not stated),"inconclusive: 11.2 µM [inhibitor, full curve]"
17,COc1ccc2c(c1)C(c1ccc(C)o1)=NNC(c1ccccc1)=N2,"inconclusive: 44.7 µM [inhibitor, partial curve]"
18,COc1ccc(S(=O)(=O)NC2CC2)cc1C(=O)N1CCOCC1,"inconclusive: 7.08 µM [inhibitor, full curve]"
19,CCc1cnc2c(c1SCC(=O)Nc1ccc(OC)c(OC)c1)c(=O)n(C)c(=O)n2C,inactive
20,Clc1ccc(N=c2ssnc2Cl)cc1,"inconclusive: 17.8 µM [inhibitor, partial curve, poor fit]"
21,COc1ccc(COC(=O)c2ccc(Br)c(S(=O)(=O)N3CCOCC3)c2)cc1F,"inconclusive: 89.1 µM [inhibitor, single point]"
22,Nc1cc(S(=O)(=O)N2CCOCC2)ccc1N1CCCCC1,"inconclusive: 15.8 µM [inhibitor, single point]"
23,COc1ccccc1NC(c1cccnc1)c1ccc2cccnc2c1O (configuration not stated),"inconclusive: 15.8 µM [inhibitor, full curve, poor fit]"

row,Compound,Potency
1,CN1C2=CC=CC=CC2=[N+](C)C12C=CC(=[N+]([O-])[O-])C=C2[N+](=O)[O-] (configuration not stated),"inconclusive: 44.7 µM [inhibitor, partial curve]"
2,O=C(CCC(=O)c1cccs1)OCc1nnc(-c2ccccc2)o1,"inconclusive: 39.8 µM [inhibitor, single point]"
3,CCOC(=O)C(C(=O)OCC)c1cc(Br)c2noc3c2c1C(=O)c1ccccc1-3,"inconclusive: 8.91 µM [inhibitor, full curve, poor fit]"
4,[O-]/C(=C(\C(=S)Nc1cccc2ccccc12)[n+]1ccccc1)c1ccc(Cl)s1,"inconclusive: 50.1 µM [inhibitor, partial curve]"
5,COc1cccc(NC(=O)Nc2nc(-c3ccc(OC)c(OC)c3)cs2)c1,"inconclusive: 39.8 µM [inhibitor, partial curve]"
6,COc1ccc(NC(=O)CSc2nc(-c3ccc(OC)c(OC)c3)[nH]c2-c2ccc(C)cc2)cc1,inactive
7,O=C(NC(=S)Nc1cccc(Cl)c1N1CCCCC1)c1cccs1,"inconclusive: 12.6 µM [inhibitor, partial curve, poor fit]"
8,COc1cc(O)c(C(CCN2CCCC2)c2ccc(N(C)C)cc2)c(OC)c1 (configuration not stated),"inconclusive: 44.7 µM [inhibitor, partial curve] and inconclusive: 35.5 µM [inhibitor, full curve, poor fit]"
9,Cc1ccc(S(=O)(=O)NC2=C(N3CCN(c4ccccc4F)CC3)C(=O)c3ccccc3C2=O)cc1,active: 14.1 µM
10,O=C(NCc1ccccn1)C1(C(F)(F)F)CC(CCCO)CCCO1 (configuration not stated),inactive
11,COc1ccccc1CN=c1c([N+](=O)[O-])nn(-c2ccc3c(c2)OCCO3)n1O,"inconclusive: 50.1 µM [inhibitor, partial curve]"
12,COc1cccc(OC)c1C(=O)NC(=S)NCc1cccnc1,inactive
13,COc1cc(OC)c(OC)cc1CN1CCN(C(=O)CC(C)C)CC1,"inconclusive: 56.2 µM [inhibitor, partial curve, poor fit]"
14,O=C(/C=C/c1ccc(Cl)cc1Cl)Nc1cccc(S(=O)(=O)NC2=NCCC2)c1,"inconclusive: 7.94 µM [inhibitor, full curve]"
15,O=c1oc2ccccc2c2oc3cc(O)c(O)cc3c12,"inconclusive: 70.8 µM [inhibitor, partial curve]"
16,Cc1cc(=O)n2[nH]c(-c3sccc3-n3c(C)ccc3C)cc2n1,"inconclusive: 79.4 µM [inhibitor, single point]"
17,CCOC(=O)C(C)Sc1nnc(Cn2c(=O)sc3ccccc32)n1-c1ccccc1 (configuration not stated),inactive
18,COc1cccc(CN2CCc3nc(Nc4ccc5c(c4)OCCO5)ncc3C2)c1,"inconclusive: 44.7 µM [inhibitor, partial curve]"
19,COc1ccc(C(=O)/C=C/c2ccccc2)c(O)c1,"inconclusive: 39.8 µM [inhibitor, partial curve, poor fit]"
20,COc1ccc(C(=O)CN2CCN(S(=O)(=O)c3ccc(C(C)C)cc3)CC2)cc1,inactive
21,CCOc1ccc(/C(O)=C2/C(=O)C(=O)N(CC3CCCO3)C2c2ccco2)cc1 (configuration not stated),inactive
22,Oc1ccc2ccccc2c1C=Nc1ccc(N2CCOCC2)cc1,"inconclusive: 28.2 µM [inhibitor, full curve]"
23,C#CCOCCOCCOCCNc1nc(N2CCN(C(=O)CCCCCCCCCCNC(=O)[C@H](CCCCN)n3cc(C[C@@H](C)CC)nn3)CC2)nc(N2CCN(C(=O)CCCCCCCCCCNC(=O)[C@@H]([C@H](C)O)n3cc(C)nn3)CC2)n1,"inconclusive: 56.2 µM [inhibitor, single point]"

row,Compound,Potency
1,CC(C)(C)c1cc(Cl)ccc1OCCn1ccnc1,"inconclusive: 15.8 µM [inhibitor, full curve]"
2,COc1cccc(NC(=O)CCc2ccccc2)c1,inactive
3,COc1ccc(N2CCN(C(CNC(=O)OCc3ccccc3)c3ccco3)CC2)cc1 (configuration not stated),"inconclusive: 50.1 µM [inhibitor, partial curve]"
4,Cc1[nH]c(N=Nc2ccccc2)nc1N=Nc1ccccc1,"inconclusive: 14.1 µM [inhibitor, full curve]"
5,CC1=Nc2cccc3cccc(c23)N1C,"inconclusive: 35.5 µM [inhibitor, partial curve, poor fit]"
6,COc1ccc(Nc2nc(NC(C)(C)C)nc(N3CCOCC3)n2)c(OC)c1,"inconclusive: 44.7 µM [inhibitor, partial curve, poor fit]"
7,CCCCCCSC1=C(C#N)C(=O)NC2(CCCCC2)S1,"inconclusive: 22.4 µM [inhibitor, full curve, poor fit]"
8,CCCNC(=O)C1CCC(Cn2c(=O)c3sccc3n(Cc3cccc(OC)c3)c2=O)CC1 (configuration not stated),inactive
9,COc1ccc(NC(=S)Nc2cc(C)[nH]n2)cc1Cl,"inconclusive: 25.1 µM [inhibitor, partial curve, poor fit]"
10,COc1ccc(C(C)=O)cc1COc1ccc(F)cc1,inactive
11,CN1C(=O)CC(=O)N(C)c2cc(S(=O)(=O)N(C)Cc3ccccc3)ccc21,"inactive and inconclusive: 35.5 µM [inhibitor, partial curve]"
12,Cc1cccc(NC(=O)C2CCN(C(=O)c3ccc(F)cc3)CC2)n1,inactive
13,CCOC(=O)N1CCN(C(=O)C2CCN(Cc3ccc(O)c(OCC)c3)CC2)CC1,"inconclusive: 22.4 µM [inhibitor, full curve]"
14,CC(=O)C1=C(c2ccc(Br)cc2)C(=O)c2ccccc2C1=O,active: 25.1 µM
15,O=C(CSc1nnc(-c2ccc(O)cc2)n1Cc1ccco1)N1CCc2ccccc2C1,inactive
16,COc1cc(CN2CCC(C(=O)N3CCN(c4ccccc4F)CC3)CC2)cc(OC)c1OC,"inconclusive: 31.6 µM [inhibitor, partial curve, poor fit]"
17,Oc1ccccc1C1Nc2cccc3cccc(c23)N1,"inconclusive: 79.4 µM [inhibitor, single point]"
18,CCOC(=O)C1CCCN(Cc2sccc2C)C1 (configuration not stated),"inconclusive: 39.8 µM [inhibitor, partial curve]"
19,O=C(CN1CCC(NC(=O)c2ccccc2Cl)CC1)NCc1ccco1,"inconclusive: 89.1 µM [inhibitor, single point]"
20,Cc1ccc2c(c1)C(=O)C(=O)N2CC1COc2ccccc2O1 (configuration not stated),"inconclusive: 50.1 µM [inhibitor, partial curve]"
21,Oc1ccc(N=Cc2ccc(-c3cccs3)s2)cc1,"inconclusive: 50.1 µM [inhibitor, partial curve]"
